Results published in the supplement of paper PMC4967469.
By IC50 is meant the dose at which the fit gives 50% viability; where the fit passes the top or lowest dose, that dose stands as a limit. The AUC spans the tested range (256-fold, ending at the top dose) of the same fit; it is 1 without any effect and falls as sensitivity rises. For part of these data: An inferred top dose is not printed in the source and was worked back from the curve model. For part of these data: Drugs with an entry number were screened twice under separate entries, and the two screens often disagree.

Legend:
Test in all cases: Viability of human cancer cell lines after 72 h of drug (GDSC screen)
KU-55933 = compound: O=c1cc(-c2cccc3c2Sc2ccccc2S3)oc(N2CCOCC2)c1 [KU-55933]; conditions: top dose 10 µM
Description: (§1)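 Human cancer cell lines in 384-well plates, medium with 10% serum, drug for 72 h over a 256-fold dose range (nine 2-fold or five 4-fold steps up to the top dose). Adherent lines were fixed and stained with the nucleic acid dye Syto60, suspension lines read with resazurin; signal relative to control wells, capped at 0 and 100%. One two-parameter sigmoid per drug and line, fitted in a mixed model over all curves with the slope shared within a line.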

CHIR-99021 = compound: Cc1cnc(-c2cnc(NCCNc3ccc(C#N)cn3)nc2-c2ccc(Cl)cc2Cl)[nH]1 [CHIR-99021]
Description: as §1

QL-X-138 = compound: C=CC(=O)Nc1cc(-n2c(=O)ccc3cnc4ccc(-c5cn[nH]c5)cc4c32)ccc1C [QL-X-138]; conditions: top dose 10.24 µM; top dose inferred
Description: as §1

Thapsigargin = compound: C/C=C(/C)C(=O)O[C@H]1C(C)=C2[C@H]([C@@H]1OC(=O)CCCCCCC)[C@@](C)(OC(C)=O)C[C@H](OC(=O)CCC)[C@@]1(O)[C@H]2OC(=O)[C@@]1(C)O [Thapsigargin]; conditions: top dose 0.512 µM; top dose inferred
Description: as §1

ABT-869 = compound: Cc1ccc(F)c(NC(=O)Nc2ccc(-c3cccc4[nH]nc(N)c34)cc2)c1 [ABT-869]; conditions: top dose 1.024 µM; top dose inferred
Description: as §1

ABT-888 = compound: C[C@]1(c2nc3c(C(N)=O)cccc3[nH]2)CCCN1 [ABT-888]; conditions: top dose 5 µM; top dose inferred
Description: as §1

CMK = compound: Cc1ccc(-c2c(C(=O)CCl)n(CCCO)c3ncnc(N)c23)cc1 [CMK]; conditions: top dose 4 µM; top dose inferred
Description: as §1

Cytarabine = compound: Nc1ccn([C@@H]2O[C@H](CO)[C@@H](O)[C@@H]2O)c(=O)n1 [Cytarabine]; conditions: top dose 2 µM
Description: as §1

Zibotentan = compound: COc1nc(C)cnc1NS(=O)(=O)c1cccnc1-c1ccc(-c2nnco2)cc1 [Zibotentan]; conditions: top dose 20 µM; top dose inferred
Description: as §1

CP466722 = compound: COc1cc2ncnc(-n3nc(-c4ccccn4)nc3N)c2cc1OC [CP466722]; conditions: top dose 16 µM; top dose inferred
Description: as §1

GSK269962A = compound: CCn1c(-c2nonc2N)nc2cnc(Oc3cccc(NC(=O)c4ccc(OCCN5CCOCC5)cc4)c3)cc21 [GSK269962A]; conditions: top dose inferred
Description: as §1

MPS-1-IN-1 = compound: COc1cc(N2CCC(O)CC2)ccc1Nc1cc(Nc2ccccc2S(=O)(=O)C(C)C)c2cc[nH]c2n1 [MPS-1-IN-1]; conditions: top dose 20 µM; top dose inferred
Description: as §1

(5Z)-7-Oxozeaenol = compound: COc1cc(O)c2c(c1)/C=C/C[C@H](O)[C@H](O)C(=O)/C=C\C[C@H](C)OC2=O [(5Z)-7-Oxozeaenol]; conditions: top dose 10 µM; top dose inferred
Description: as §1

[1] = top dose 2.56 µM, screen: GDSC drug entry 154
[2] = top dose 2.5 µM, screen: GDSC drug entry 127
[3] = top dose 10 µM, screen: GDSC drug entry 1241, top dose inferred
[4] = top dose 5 µM, screen: GDSC drug entry 1192

Cell Line	AUC (KU-55933)	IC50 (KU-55933) [µM]	AUC (CHIR-99021; [1])	IC50 (CHIR-99021; [1]) [µM]	AUC (QL-X-138)	IC50 (QL-X-138) [µM]	AUC (Thapsigargin)	IC50 (Thapsigargin) [µM]	AUC (ABT-869)	IC50 (ABT-869) [µM]	AUC (ABT-888)	IC50 (ABT-888) [µM]	AUC (CMK)	IC50 (CMK) [µM]	AUC (Cytarabine)	IC50 (Cytarabine) [µM]	AUC (Zibotentan)	IC50 (Zibotentan) [µM]	AUC (CP466722)	IC50 (CP466722) [µM]	AUC (GSK269962A; [2])	IC50 (GSK269962A; [2]) [µM]	AUC (MPS-1-IN-1)	IC50 (MPS-1-IN-1) [µM]	AUC (CHIR-99021; [3])	IC50 (CHIR-99021; [3]) [µM]	AUC (GSK269962A; [4])	IC50 (GSK269962A; [4]) [µM]	AUC ((5Z)-7-Oxozeaenol)	IC50 ((5Z)-7-Oxozeaenol) [µM]
DJM-1 (skin, adherent)	0.974	> 10	0.986	> 2.56	0.859	8.33	0.439	0.0218	0.987	> 1.02	0.986	> 5	0.974	> 4	0.862	1.68	0.987	> 20	0.919	> 16	0.986	> 2.5	0.912	> 20						
EB2 (Burkitt lymphoma, suspension)	0.99	> 10	0.99	> 2.56			0.342	0.0122	0.988	> 1.02	0.99	> 5	0.95	> 4	0.99	> 2	0.99	> 20	0.501	1	0.957	> 2.5	0.911	> 20	0.989	> 10	0.972	> 5	0.814	4.83
GAK (melanoma, adherent)	0.98	> 10	0.989	> 2.56	0.872	8.96	0.615	0.0653			0.989	> 5	0.942	> 4	0.898	> 2	0.989	> 20	0.943	> 16	0.99	> 2.5	0.975	> 20	0.956	> 10	0.947	> 5	0.752	3.18
GCIY (stomach, adherent)	0.9	> 10	0.975	> 2.56	0.643	1.68	0.567	0.0502	0.983	> 1.02	0.984	> 5	0.844	3.42	0.866	> 2	0.98	> 20	0.742	5.46	0.937	> 2.5	0.952	> 20						
GDM-1 (acute myeloid leukaemia, suspension)	0.985	> 10	0.979	> 2.56			0.561	0.0466	0.176	0.00715	0.987	> 5	0.929	> 4	0.98	> 2	0.971	> 20	0.589	1.74	0.51	0.166	0.724	5.22	0.986	> 10	0.678	0.955	0.486	0.574
HC-1 (hairy cell leukaemia, suspension)	0.968	> 10	0.984	> 2.56	0.519	0.719	0.706	0.119	0.98	> 1.02	0.987	> 5	0.9	> 4	0.985	> 2	0.979	> 20	0.655	2.63	0.987	> 2.5			0.927	> 10	0.942	> 5	0.503	0.635
IST-SL2 (small cell lung carcinoma, suspension)	0.952	> 10	0.987	> 2.56	0.407	0.357	0.272	0.00724	0.987	> 1.02	0.989	> 5	0.865	3.47	0.827	1.2			0.717	4.09	0.816	1.37			0.903	> 10	0.967	> 5	0.805	4.98
JSC-1 (B-cell lymphoma, suspension)	0.971	> 10	0.987	> 2.56	0.395	0.33	0.645	0.08	0.983	> 1.02	0.982	> 5	0.851	3.02	0.812	1.06	0.983	> 20	0.655	2.68			0.794	9.06						
KARPAS-231 (B-cell leukaemia, suspension)	0.844	4.84	0.994	> 2.56	0.173	0.0928	0.174	0.00467	0.994	> 1.02	0.994	> 5	0.742	1	0.275	0.0345					0.804	0.927			0.952	> 10	0.95	> 5	0.823	4.21
MHH-NB-11 (neuroblastoma, adherent)	0.978	> 10	0.981	> 2.56	0.734	3.21	0.574	0.0522	0.953	> 1.02	0.941	> 5	0.916	> 4	0.754	0.733	0.981	> 20	0.82	10.4	0.44	0.105	0.75	7.12						
NB69 (neuroblastoma, adherent)	0.978	> 10	0.867	1.88	0.667	1.75	0.145	0.00304	0.948	> 1.02	0.983	> 5	0.909	> 4	0.43	0.0825	0.987	> 20	0.726	4.01	0.968	> 2.5	0.785	7.54			0.975	> 5		
NCI-H64 (small cell lung carcinoma, suspension)	0.992	> 10	0.978	> 2.56	0.601	1.13	0.206	0.00597	0.995	> 1.02	0.995	> 5	0.934	3.77	0.971	> 2	0.996	> 20	0.744	3.98	0.996	> 2.5	0.988	> 20						
NCI-H510A (small cell lung carcinoma, semi-adherent)	0.982	> 10	0.989	> 2.56	0.841	6.3	0.522	0.0365	0.99	> 1.02	0.99	> 5	0.937	> 4	0.781	0.758	0.989	> 20	0.897	> 16	0.849	1.65	0.966	> 20						
NCI-SNU-16 (stomach, suspension)	0.968	> 10	0.991	> 2.56	0.984	> 10.2	0.616	0.064	0.99	> 1.02	0.988	> 5	0.952	> 4	0.979	> 2	0.991	> 20	0.983	> 16	0.976	> 2.5	0.989	> 20			0.923	> 5		
RCC10RGB (kidney, adherent)	0.958	> 10	0.768	2.16	0.882	> 10.2	0.846	> 0.512	0.969	> 1.02	0.961	> 5	0.861	> 4	0.916	> 2	0.941	> 20	0.919	> 16	0.775	2.28	0.899	> 20						
RPMI-8226 (myeloma, suspension)	0.908	> 10			0.459	0.502	0.208	0.00515			0.952	> 5	0.921	> 4	0.968	> 2	0.984	> 20	0.745	4.47	0.971	> 2.5	0.888	17.4			0.949	> 5	0.674	1.78
SUP-B15 (lymphoblastic leukaemia, suspension)	0.934	> 10	0.964	> 2.56	0.244	0.122	0.463	0.0255	0.986	> 1.02	0.962	> 5	0.787	1.67	0.446	0.0896	0.981	> 20	0.594	1.79	0.754	0.807	0.867	16.8						
SW954 (urogenital system, adherent)	0.95	> 10	0.985	> 2.56	0.723	2.78	0.331	0.0107	0.977	> 1.02	0.985	> 5	0.92	> 4	0.971	> 2	0.985	> 20	0.696	3.58	0.914	> 2.5	0.84	14						
WIL2-NS (lymphoid neoplasm, suspension)	0.992	> 10	0.992	> 2.56			0.208	0.00553	0.992	> 1.02	0.979	> 5	0.737	1.01	0.76	0.587	0.987	> 20	0.539	1.25	0.952	> 2.5	0.796	7.46	0.992	> 10	0.958	> 5	0.794	3.67
